{
  "source": "PubChem BioAssay AID2101",
  "about": "(National Center for Advancing Translational Sciences (NCATS), 2009)",
  "note": "Hit rate of the full screen: of about 330,000 compounds, about 300 (0.091%) were called active. The inconclusive results got no clear call from the source; some entries with a clear call stand among them for comparison. Calls follow the shape of the dose curve; as a rule, active = well fitted inhibition curve with a large enough effect; inconclusive = small, poorly fitted or top-dose-only effect, or effect the other way, or another doubt; inactive = no such curve, though single readings can be large or run the other way. Potencies of inconclusive entries are left out as doubtful fits. Potency is read from the fitted curve at half-maximal effect.",
  "data": [
    {"molecular_target": "Lysosomal acid glucosylceramidase (Homo sapiens) (UniProt P04062)", "assay": "qHTS Assay for Inhibitors and Activators of N370S glucocerebrosidase as a Potential Chaperone Treatment of Gaucher Disease;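 as to activity change, negative = inhibition: 0% = full enzyme activity and -100% = no enzyme basal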", "details": "N370S GC spleen homogenate, 4MU-glucoside fluorescence; activity change, negative = inhibition: at 59.4 µM (top of the series) unless noted", "values": [
      {"compound": "COc1cc(C(=O)Nc2cc(-c3cn4cccnc4n3)ccc2C)cc(OC)c1OC", "Potency": "inconclusive [activator, partial curve]"},
      {"compound": "Cc1ccc(N2CCN(/N=C/c3ccncc3)CC2)cc1", "Potency": "inconclusive [inhibitor, single point]"},
      {"compound": "CC(C)CCOCc1nc2sc3c(c2c(=O)[nH]1)CCC(C)C3", "note": "(centres undefined)", "Potency": "inactive"},
      {"compound": "COc1cc(/C=C2\\SC(=Nc3ccccc3)N(CCc3c[nH]c4ccccc34)C2=O)ccc1OC(C)C(=O)O", "note": "(centres undefined)", "Potency": "inactive"},
      {"compound": "Cc1ccc(C(=O)Nc2ccc3c(c2)OCO3)o1", "Potency": "inactive"},
      {"compound": "CC(=O)c1c(C)[nH]c(C(=O)Nc2ccc3c(c2)OCCO3)c1C", "Potency": "inconclusive [inhibitor, full curve, poor fit]"},
      {"compound": "CCN(CC)CCCNC(=O)N[C@@H](Cc1ccccc1)C(=O)O", "Potency": "inconclusive [inhibitor, full curve, poor fit]"},
      {"compound": "COc1cccc(NC(=O)NC2(C(F)(F)F)Oc3ccccc3O2)c1", "Potency": "inactive"},
      {"compound": "Clc1nc(-c2ccccc2)cc(-c2ccccc2)n1", "Potency": "inactive"},
      {"compound": "CCOc1ccc(-c2nc(N)ncc2-c2ccc(Cl)cc2)c(O)c1", "Potency": "inconclusive [inhibitor, full curve, poor fit]"},
      {"compound": "Cc1csc2ncc(C(=O)Nc3ccc4c(c3)OCCO4)c(=O)n12", "activity change, negative = inhibition": "inconclusive: 34.4% [activator]"},
      {"compound": "CN1C(=O)CSc2ccc(NC(=O)NCCC3=CCCCC3)cc21", "Potency": "inactive"},
      {"compound": "CCN1CCN(C(=O)CS(=O)Cc2nc(-c3cccc(C)c3)oc2C)CC1", "note": "(centres undefined)", "Potency": "inactive"},
      {"compound": "N=C1C(c2ccccc2)=C(O)CN1c1ccccc1", "Potency": "inconclusive [inhibitor, partial curve]"},
      {"compound": "FC(F)(F)c1ccccc1-c1nccc(-n2ccnc2)n1", "Potency": "inactive"},
      {"compound": "COc1ccc(OC)c(NC(=O)Cn2cc(C#N)c3ccccc32)c1", "Potency": "inconclusive [activator, partial curve]"},
      {"compound": "O=C(O)CCCCCn1c(SCC(=O)Nc2ccc(F)cc2)nc2ccsc2c1=O", "Potency": "inconclusive [activator, single point]"},
      {"compound": "Cc1nn(-c2ccccc2)c(N)c1N=Nc1cccc(S(=O)(=O)N2CCOCC2)c1", "Potency": "inconclusive [inhibitor, partial curve]"},
      {"compound": "Cc1cc(=O)oc2cc(NC(=O)c3cccc(S(C)(=O)=O)c3)ccc12", "Potency": "inconclusive [activator, single point]"},
      {"compound": "CCOC(=O)c1ccc(NCCOC)c([N+](=O)[O-])c1", "Potency": "inactive"},
      {"compound": "Cc1ccc(N/C(CSC(N)=O)=N\\S(=O)(=O)c2ccc(C)cc2)cc1", "Potency": "inconclusive [activator, full curve, poor fit]"},
      {"compound": "COc1cccc(NC(=O)CSc2nc3ccccc3nc2N2CCCC2)c1", "Potency": "inconclusive [activator, single point]"},
      {"compound": "CCOC(=O)C(C(=O)OCC)N(C#N)c1nc(SC)nc(N(C)C)n1", "Potency": "inconclusive [activator, single point]"},
      {"compound": "O=C(/C=C/c1cccc2ccccc12)N1CCOCC1", "Potency": "inactive"},
      {"compound": "CCc1ccc2nc3sc(C(=O)N4CCc5ccccc54)c(N)c3cc2c1", "Potency": "inconclusive [activator, partial curve, poor fit]"},
      {"compound": "CNS(=O)(=O)c1ccc(NC(=S)Nc2ccc3c(c2)OCO3)cc1", "Potency": "inconclusive [activator, partial curve, poor fit]"},
      {"compound": "COc1cc(NC(=O)COc2cc(O)c3c(c2)OC(C)(C)CC3=O)cc(OC)c1", "Potency": "inactive"},
      {"compound": "Cc1cc(C)nc(N2CCC(C(=O)O)CC2)n1", "Potency": "inactive"},
      {"compound": "CCc1ccc(NC(=S)N(CCCN2CCOCC2)Cc2ccco2)cc1", "Potency": "inactive"},
      {"compound": "CCCN(C(=O)CSc1nnc(-c2ccoc2C)n1N)C1CCS(=O)(=O)C1", "note": "(centres undefined)", "Potency": "inconclusive [activator, partial curve, poor fit]"},
      {"compound": "Cc1ccc(OCC(=O)Nc2ccccc2-c2ccccc2)cc1", "Potency": "inconclusive [activator, partial curve, poor fit]"},
      {"compound": "CCOC(=O)COc1nc2c(c(-c3ccco3)c1C#N)CCc1ccccc1-2", "Potency": "inconclusive [activator, single point]"},
      {"compound": "N#Cc1nc(-c2ccco2)oc1N1CCOCC1", "Potency": "inactive"},
      {"compound": "Cc1nnc(N/N=C/c2cc([N+](=O)[O-])c(N3CCC(C)CC3)cc2N2CCC(C)CC2)n1N", "Potency": "inactive"},
      {"compound": "Oc1ccc(C[C@@H]2CNCCN2CCc2cccc3ccccc23)cc1", "Potency": "inconclusive [inhibitor, single point]"},
      {"compound": "Cc1nc(Nc2ccc(O)cc2)c2c3c(sc2n1)CCCC3", "Potency": "active: 11.2 µM"},
      {"compound": "CCN(CC)c1ccc2nc3ccccc3[n+](CC)c2c1", "Potency": "inactive"},
      {"compound": "Cc1ccc(S(=O)(=O)NC(=O)Nc2c(C)n(C)n(-c3ccccc3)c2=O)cc1", "Potency": "inactive"},
      {"compound": "O=C(NCc1ccccc1)C1=C[C@H](C2CC2)C[C@H](OCc2ccc(CO)cc2)O1", "Potency": "inconclusive [activator, single point]"},
      {"compound": "CN(C)c1oc(-c2cccs2)nc1C#N", "Potency": "inconclusive [activator, partial curve]"},
      {"compound": "O=c1cc(CN2CCN(c3ccc(O)cc3)CC2)nc2scc(-c3ccccc3)n12", "Potency": "inconclusive [inhibitor, partial curve]"},
      {"compound": "COc1cccc(C2C(C(=O)OC(C)C)=C(C)Nc3ncnn32)c1", "note": "(centres undefined)", "Potency": "inconclusive [inhibitor, partial curve]"},
      {"compound": "C#CCOCCOCCOCCNc1nc(N2CCN(C(=O)CCCCCCCCCCNC(=O)Cn3cc(CCCCCN)nn3)CC2)nc(N2CCN(C(=O)CCCCCCCCCCNC(=O)[C@H]([C@@H](C)CC)n3cc(CCCCCN)nn3)CC2)n1", "Potency": "inconclusive [inhibitor, single point]"},
      {"compound": "CCC(C(=O)OCC(=O)Nc1cc(C)ccc1OC)c1ccccc1", "note": "(centres undefined)", "Potency": "inconclusive [activator, single point]"},
      {"compound": "CCN(CC(=O)Nc1c(F)cccc1F)C(=O)c1ccc(N2CCOCC2)c([N+](=O)[O-])c1", "Potency": "inconclusive [inhibitor, full curve, poor fit]"},
      {"compound": "O=C(N/N=C/c1ccccn1)NC12CC3CC(CC(C3)C1)C2", "Potency": "inconclusive [activator, partial curve]"},
      {"compound": "Cc1nnc(NC(=O)c2csc3c2CCCC3)s1", "Potency": "inconclusive [inhibitor, partial curve]"},
      {"compound": "CCCNC(=O)c1cc2c(C(F)(F)F)nn(C)c2s1", "Potency": "inconclusive [activator, partial curve, poor fit]"},
      {"compound": "CC1=[N+](CC(=O)NC(C)(C)C)CCc2ccccc21", "Potency": "inconclusive [inhibitor, single point]"},
      {"compound": "COc1c(O)cc2oc(-c3ccc(O)c(O)c3)cc(=O)c2c1O", "Potency": "inconclusive [inhibitor, partial curve]"},
      {"compound": "Cc1cccc(CNc2nc(-c3ccc4c(c3)OCO4)nc3ccccc23)c1", "Potency": "inconclusive [inhibitor, single point]"},
      {"compound": "S=C(NCc1ccc(Cl)cc1)NC12CC3CC(CC(C3)C1)C2", "Potency": "inconclusive [activator, single point]"},
      {"compound": "COc1ccccc1-n1c(SCC(=O)Nc2cc(C)on2)nc2c([nH]c3ccccc32)c1=O", "Potency": "inconclusive [activator, single point]"},
      {"compound": "O=[N+]([O-])c1ccc(O)c(C=Nc2ccc3c(c2)OCCO3)c1", "Potency": "inactive"},
      {"compound": "CN(CC(=O)NCc1cccs1)S(=O)(=O)c1cccc2cccnc12", "Potency": "inconclusive [inhibitor, partial curve]"},
      {"compound": "CCOC(=O)c1sc(NC(=S)NC(=O)C2CCCC2)cc1C", "Potency": "inconclusive [activator, partial curve]"},
      {"compound": "CC1(C)OC(=O)C(=NNc2ccccc2)C(=O)O1", "Potency": "inactive"},
      {"compound": "Cc1ccc(-c2ccc(/C=N\\NC(=O)C3C(=O)NCC3c3ccccc3)o2)cc1Cl", "note": "(centres undefined)", "Potency": "inconclusive [inhibitor, partial curve]"},
      {"compound": "CC(=O)c1ccc(N2CCN(S(=O)(=O)c3cc4[nH]c(=O)c(=O)[nH]c4cc3C)CC2)cc1", "Potency": "inconclusive [inhibitor, partial curve, poor fit]"},
      {"compound": "O=c1ccc2ccc(OS(=O)(=O)O)cc2o1", "Potency": "inconclusive [activator, partial curve]"},
      {"compound": "CCNc1nc(Oc2ccc(Cl)cc2Cl)cc(C(F)(F)F)n1", "Potency": "inactive"},
      {"compound": "Cc1ccc2c(c1)N(CC(=O)NC1CCCCCC1)C(=O)c1cccnc1O2", "Potency": "inconclusive [activator, full curve, poor fit]"},
      {"compound": "CCS(=O)(=O)N1CCC(C(=O)N2CCc3ccccc3C2)CC1", "Potency": "inconclusive [activator, partial curve]"},
      {"compound": "Cn1c2ccccc2c(=O)c2ccc(C#CC3(O)CCCCC3)cc21", "Potency": "inconclusive [activator, single point]"},
      {"compound": "Cc1ccc(NC(=O)Nc2ccc(F)cc2)nc1", "Potency": "inconclusive [activator, partial curve]"},
      {"compound": "COc1ccc(-c2nc3ccccc3o2)cc1OC", "Potency": "inactive"},
      {"compound": "CSc1nc2nc3c(cc2c(=O)n1-c1ccccc1C)CCCC3", "Potency": "inconclusive [activator, partial curve, poor fit]"},
      {"compound": "COc1ccccc1CNCC(=O)Nc1ccc(C(F)(F)F)cc1", "Potency": "inconclusive [activator, single point]"},
      {"compound": "O=C(c1ccc(Cn2cc(Cl)cn2)o1)N1CCN(Cc2ccc3c(c2)OCO3)CC1", "Potency": "inconclusive [activator, partial curve]"}
    ]}
  ]
}
